Over roughly 33,000 sequences, “E-score (-0.5 to 0.5)” has its median near -0.012; the highest 2% begin near 0.29. The list shows a part of the results.
target: T1, Ybr033w (UniProt P38073); assay: PBM E-score (8-mer binding enrichment) (E-score (-0.5 to 0.5)); higher = stronger / more preferred TF binding; most listed sequences are background and not binding sites; settings: protein concentration: 200 nM; construct: GST-full length
T1 sequence: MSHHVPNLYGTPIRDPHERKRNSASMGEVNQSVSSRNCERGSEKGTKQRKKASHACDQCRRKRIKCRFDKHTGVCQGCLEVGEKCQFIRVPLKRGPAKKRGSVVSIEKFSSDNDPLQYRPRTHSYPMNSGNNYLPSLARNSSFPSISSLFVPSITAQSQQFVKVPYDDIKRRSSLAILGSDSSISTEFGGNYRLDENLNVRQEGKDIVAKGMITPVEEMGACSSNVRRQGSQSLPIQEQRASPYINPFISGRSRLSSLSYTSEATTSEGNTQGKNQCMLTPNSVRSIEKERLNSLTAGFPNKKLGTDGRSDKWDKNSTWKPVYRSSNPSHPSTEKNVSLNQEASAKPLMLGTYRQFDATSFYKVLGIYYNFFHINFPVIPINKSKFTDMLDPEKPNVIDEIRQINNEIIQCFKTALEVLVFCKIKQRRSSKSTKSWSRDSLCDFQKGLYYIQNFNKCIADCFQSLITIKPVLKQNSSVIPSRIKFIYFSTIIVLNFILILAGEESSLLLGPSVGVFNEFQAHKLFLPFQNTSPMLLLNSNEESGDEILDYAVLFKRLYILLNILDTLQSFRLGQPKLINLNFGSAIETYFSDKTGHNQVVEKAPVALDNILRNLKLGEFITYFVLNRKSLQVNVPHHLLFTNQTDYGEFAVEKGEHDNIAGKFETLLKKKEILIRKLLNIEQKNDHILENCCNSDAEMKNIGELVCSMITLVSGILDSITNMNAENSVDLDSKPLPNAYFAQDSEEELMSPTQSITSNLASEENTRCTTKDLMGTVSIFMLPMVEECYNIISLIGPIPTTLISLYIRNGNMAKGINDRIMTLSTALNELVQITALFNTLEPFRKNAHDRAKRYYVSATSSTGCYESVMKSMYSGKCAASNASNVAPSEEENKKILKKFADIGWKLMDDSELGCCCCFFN
In short: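 Masliner-normalised scans of fluorescent anti-GST signal were the basis for scoring. That signal came from GST-tagged yeast transcription factors applied at about 100-200 nM to double-stranded universal all-10-mer Agilent arrays on fresh or once-stripped slides. Each ungapped eight-base word, pooled with its reverse complement, received an E-score from the Universal PBM Analysis Suite.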

Row | Sequence | PBM E-score
1 | AGACGCAA | 0.0687
2 | CGGGCGAG | -0.14
3 | ATCGCCTG | -0.364
4 | AAATAACG | 0.232
5 | GCAGAGGC | -0.373
6 | GGGCAGAA | 0.161
7 | GGATTCTA | -0.0352
8 | GGATGTAA | 0.163
9 | ATTGAGAC | 0.147
10 | CACTTTAG | 0.112
11 | ATCTGTTC | 0.0791
12 | CTCGTAGC | -0.0753
13 | GGCTCAAC | -0.0831
14 | CATATCTA | 0.279
15 | TGTGCAAA | -0.0555
16 | CGTCTTAC | -0.0604
17 | CCCTTACG | -0.388
18 | CCGAAATC | 0.0136
19 | AGCGGGTA | -0.11
20 | CGTCTCCC | -0.199
21 | AACACGCA | 0.0222
22 | AGTACAAT | 0.302
23 | GCATGCGC | -0.0131
24 | AGACTTGA | 0.022
25 | CATGCCCC | -0.22

Row | Sequence | PBM E-score
26 | TGTTGGAA | 0.193
27 | CCACGAGG | -0.0481
28 | AAATATAA | 0.305
29 | CTGTCCAC | -0.0832
30 | ACTACAGC | -0.058
31 | CCGGGCGA | -0.226
32 | AAGCAGGG | -0.0605
33 | GCATAATA | 0.198
34 | AGGACGGA | -0.133
35 | AGCGTCGC | -0.0934
36 | ATGACACG | 0.0399
37 | AAACCGAG | -0.0114
38 | GGTGGGGA | 0.0759
39 | AAACTGTA | 0.174
40 | ACAATTTG | 0.132
41 | AAACGGCG | 0.0866
42 | CACTAAAC | 0.16
43 | AGTGTAAT | 0.125
44 | AGCGAGGA | -0.0245
45 | CCGGGCGC | -0.172
46 | CATACGGA | 0.00688
47 | CATGAAAG | 0.0847
48 | AGGGCAAA | -0.138
49 | ATGTGTTC | 0.194
50 | GCGCAAAC | -0.0469

Row | Sequence | PBM E-score
51 | GCTGCAAC | -0.086
52 | GCCAGCAC | -0.127
53 | GTTAGGAA | 0.0919
54 | TCGACGAA | 0.104
55 | CGCACCCG | 0.021
56 | TCCGGAAA | 0.298
57 | CACATGAG | -0.0611
58 | ATGCCCGC | -0.12
59 | ACTTAAAC | 0.267
60 | TAGACGCA | -0.0494
61 | CGAGCGCA | -0.0144
62 | CAACTACC | -0.0259
63 | GCCCTTTA | -0.199
64 | GCTTGTTA | 0.113
65 | ACCACCAT | -0.092
66 | AATAAGCT | 0.209
67 | GATTTAAA | -0.00582
68 | CGTCTTGC | -0.00231
69 | TACTTTAA | 0.103
70 | ACAAGGGG | -0.316
71 | TTCACGAA | -0.109
72 | ATGGCTTA | 0.00309
73 | ACCTATCG | 0.00016
74 | GGCCGATA | -0.0928
75 | ATCAAGAT | 0.151

Row | Sequence | PBM E-score
76 | AGGGCTTC | -0.0739
77 | GCCATTAC | -0.0208
78 | CCAATATA | -0.0772
79 | CATTCCGG | -0.0411
80 | CAGGCCCC | -0.354
81 | GCTATAGC | -0.176
82 | CCCCAGTC | -0.215
83 | CAGCAATA | 0.118
84 | AAGCTAGG | 0.00023
85 | TCTATAAA | 0.2
86 | CCCATGCA | -0.00219
87 | ACAACTAT | 0.203
88 | CATCTTAC | -0.0971
89 | AGCATAGG | -0.221
90 | ACACTAGA | 0.17
91 | CGGATATC | 0.0386
92 | ATAGTCGA | 0.144
93 | ACGATGGA | 0.00776
94 | AAGTAGGC | -0.00388
95 | AGATGCCG | -0.0783
96 | AGGGGATG | -0.126
97 | ATTGATGA | 0.158
98 | CGGAACCA | 0.141
99 | CGGCCCAA | -0.226
100 | TTAGTAAA | 0.301

Row | Sequence | PBM E-score
101 | ACCGCGAG | -0.118
102 | GACTAGCC | -0.205
103 | ACATTTTG | 0.198
104 | ACAGAAGA | 0.0639
105 | GTACGCTA | -0.178
106 | ACCCACAT | 0.0767
107 | CCACAAAG | 0.0891
108 | CCGAATAA | 0.293
109 | ACGGTGTG | -0.0861
110 | CAACAACC | 0.128
111 | CGAGCCAC | -0.374
112 | CCTCTGAC | -0.0306
113 | CTAAGTTA | 0.0602
114 | AAGATCAT | 0.146
115 | TCCTCAGA | -0.0721
116 | CGCGCAAG | 0.0798
117 | GGCACCCC | -0.232
118 | AGCCGAGA | -0.112
119 | AACAGAGC | -0.0995
120 | CTGCGAAG | -0.142
121 | ATAGACGC | 0.0493
122 | ATCAGGAA | 0.149
123 | CCGCTGCA | -0.105
124 | CTGTGACA | -0.0684
125 | AACATCTG | 0.0259

Row | Sequence | PBM E-score
126 | TCGGGAGA | -0.105
127 | AATCTTCT | 0.132
128 | AGAATCCG | -0.00623
129 | CGACTAGC | -0.073
130 | ATGCCCCA | -0.221
131 | AGACACGG | -0.0835
132 | CTGTCTTA | 0.0957
133 | CAAGGAGG | -0.0252
134 | CCGACCGA | -0.253
135 | GAGCCGCA | 0.0957
136 | CTACCCCC | -0.352
137 | CGAATTGC | -0.0195
138 | AGGTACCG | -0.0115
139 | GGACTATA | 0.0631
140 | GAATCTGC | 0.00807
141 | TCGCGGAA | -0.0635
142 | GGACTGCC | -0.216
143 | ATTAGCAC | 0.144
144 | AGTTTACA | 0.11
145 | ATGTGAAT | 0.165
146 | AGCTACAG | -0.0615
147 | AAATCCAT | 0.202
148 | CCAAGCGC | -0.0523
149 | CCTCCTTC | -0.236
150 | AAAGAAGC | -0.0389

Row | Sequence | PBM E-score
151 | ATACGGAT | 0.213
152 | ATCCGGCG | -0.0103
153 | ACAGCGCA | -0.156
154 | GCGAATTA | 0.275
155 | AGAGAGAC | -0.143
156 | GACGTGGA | -0.134
157 | AAGTAGCC | -0.2
158 | AACATTTC | 0.272
159 | ACAATTGG | -0.143
160 | GAGCTTGC | -0.271
161 | CCGACTCC | -0.185
162 | GGTAATCA | 0.126
163 | TAAAAGGA | 0.119
164 | CTTGCGTC | -0.0534
165 | TCGTCAGA | -0.11
166 | GGCGAGGA | -0.203
167 | GAGTTATA | -0.00286
168 | AGGATAGG | -0.153
169 | CCCTTTTA | -0.229
170 | CGGACTAG | -0.225
171 | GCCATACC | -0.173
172 | GCGAGAGA | -0.0885

From the supplement of paper PMC3334620
